# Reference: publication PMC6212790
# This is one part of the list. At the low end of the ranking, values are background and their order means little.
# Target: T1, GST-Rok (full length) (UniProt O34857)
# T1 sequence: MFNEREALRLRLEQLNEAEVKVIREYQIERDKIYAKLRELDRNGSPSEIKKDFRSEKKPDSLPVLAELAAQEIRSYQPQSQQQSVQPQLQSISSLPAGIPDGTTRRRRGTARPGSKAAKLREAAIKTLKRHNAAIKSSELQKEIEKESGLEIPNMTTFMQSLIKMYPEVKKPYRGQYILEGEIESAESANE
# Test: protein binding microarray;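 note: rank score from −0.5 (least bound) to 0.5 (best bound)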
# Details: Rok is a gene silencer of Bacillus subtilis; high values mean tight binding; most listed sequences are background and not binding sites; double strand, one strand shown
row,Sequence,binding signal [E-score]
1,CGTAAACC,0.143
2,ACTGCACA,0.19
3,AATAGCTA,0.358
4,GGGGGCGA,-0.301
5,AAGGGTCT,-0.115
6,ATCTTGGG,-0.16
7,ACCATTAG,0.126
8,CTTAATAC,0.18
9,GCTGCTCA,-0.193
10,CAGGTAGG,-0.226
11,AGCATAAT,0.325
12,GGGGCATA,-0.0458
13,CTGAGATC,0.0666
14,CTCTTAAC,-0.035
15,ATGGTATC,0.165
16,GCAAGACC,-0.235
17,CTAAATAC,0.351
18,GCTATGGA,0.0828
19,AACTCGAA,0.03
20,ATTGCGTA,0.296
21,GAAAGTTA,0.135
22,TGCCAAAA,-0.08
23,AGGCATGG,-0.277
24,GAACAGGC,-0.0613
25,CGGCCCTA,-0.27

row,Sequence,binding signal [E-score]
1,CTGTATAA,0.265
2,AACGTCCC,-0.193
3,CGCACGGA,-0.131
4,ATTTTCAA,-0.0223
5,CAGCGACG,-0.136
6,GACTAATC,0.0382
7,CAAAATCC,-0.141
8,AGGACAAT,0.133
9,ATCGGTCG,-0.141
10,CGCTGCCA,-0.235
11,ATCGCGCA,0.0968
12,CCATGCGC,-0.213
13,ATCCCTAA,-0.06
14,ACACGTGC,-0.0468
15,TAGAGCGA,-0.0799
16,CAAGCACA,-0.0376
17,CGGTTCTA,0.09
18,AGGGCTTG,-0.305
19,AATGCCAT,0.00982
20,TTCCCAAA,-0.0989
21,ATACAGTA,0.319
22,CAGAAAGC,-0.127
23,GGACGTGA,-0.14
24,TGAATACA,0.0213
25,CGCAGGCA,-0.24

row,Sequence,binding signal [E-score]
1,AAATGATC,0.143
2,CATGGACC,-0.282
3,ATCATAGA,0.174
4,AACGCGGC,-0.249
5,AATTAAGG,0.158
6,AGTTCATC,0.119
7,CGCCGACC,-0.441
8,AAGTAAGA,0.0339
9,ACCTTCTG,-0.0843
10,GCACCCCC,-0.427
11,GGAACTAA,0.246
12,CCCGCGTA,-0.0236
13,GAACCGTC,-0.0491
14,GGTGCCCA,-0.251
15,ATGCCTCA,-0.0433
16,CTACCTGA,0.178
17,GCTGACGA,-0.167
18,GGATCTGA,-0.101
19,GATAGCAA,0.189
20,ACCGTCTC,-0.0829
21,GTGTGAGA,-0.0423
22,GGAGCTAA,0.0195
23,AATCAATT,0.145
24,AGGTGTGC,-0.104
25,GAGCGTGA,-0.162

row,Sequence,binding signal [E-score]
1,CATCCTTC,-0.203
2,GGGTTCCA,-0.294
3,AAACAACC,-0.173
4,ATGCTGCC,-0.0694
5,GGTTCACA,-0.117
6,AACCTTTG,-0.0196
7,CATGTTGG,-0.0439
8,GTCAAGCA,0.0932
9,CCTTCTCC,-0.334
10,CAGCATGA,0.0825
11,GCCCTCAC,-0.352
12,GCCGATTA,-0.165
13,CCCGCCTA,-0.261
14,CGATGGCG,-0.281
15,CACAGTGC,0.0156
16,CTTCCGGC,-0.387
17,GCATTGTA,0.152
18,AGCGCAAT,0.0762
19,CCGCCTTA,-0.153
20,CACAAAGG,-0.246
21,AGCCCTCA,-0.175
22,TGCTCGAA,-0.0417
23,GCGCCTGA,-0.392
24,CGATATGC,0.0317
25,CAATTCTG,-0.0253

row,Sequence,binding signal [E-score]
1,GCGGAAAA,0.129
2,ACTCTTTA,0.143
3,ACGCGTTC,0.00292
4,ACTTGTTC,0.145
5,CGCGGCAC,-0.266
6,CCGTGCTC,-0.174
7,CGTTCTTA,0.0939
8,AACGCCTC,-0.187
9,ACAAAGGT,0.032
10,ACGGCGAT,-0.151
11,ATCTTTCG,0.109
12,ACTCTCAG,0.00612
13,GGTACGAA,0.0735
14,GACAAGTA,0.0991
15,ACGGCAGT,-0.2
16,GCAAATCA,0.0652
17,ACCACCAG,-0.145
18,AGGCAAAA,0.0293
19,CCACTGTC,-0.188
20,CCAGGCTC,-0.295
21,ACCCTGCT,-0.204
22,CAGGCGAG,-0.272
23,ACGGGGCG,-0.468
24,GATCGGGC,0.00756
25,ATTGTGAG,0.0581

row,Sequence,binding signal [E-score]
1,CAATAATG,0.0655
2,TCATATAA,0.192
3,ATATCTAA,0.371
4,CGAATTCG,0.207
5,CCGGGCCG,-0.335
6,ATTAAGCG,0.214
7,CGAAGGAG,-0.162
8,AAGTAACG,0.116
9,ACTCGGAG,-0.246
10,TGCGGCAA,0.043
11,ACGCCCTA,-0.251
12,GACGTCAA,0.0734
13,ACTAACTG,0.163
14,TGTGGTAA,0.217
15,ACGCGAAC,-0.0469
16,CTGCACTA,0.0357
17,TCTCTCAA,-0.0745
18,ATCCCTGG,-0.27
19,AGGTTCGG,-0.0855
20,AGCGAATC,-0.027
21,ACTACGAT,0.335
22,ACCATCGG,-0.056
23,AGAGGGGG,-0.422
24,GATCCCTA,-0.206
25,ATATGCAT,0.276

row,Sequence,binding signal [E-score]
1,ATGAGAGC,-0.141
2,ACAAGACG,-0.0878
3,ACGCCGTA,-0.0717
4,ACTGTGAC,0.0552
5,GAAGAATA,0.121
6,GGACAGCC,-0.301
7,AGAGTCGA,-0.0761
8,TAAACAGA,-0.1
9,GCTATCTA,0.33
10,CCCGGAGA,-0.232
11,CGACTCCA,-0.18
12,ACCGGAAT,0.189
13,AGTATGTA,0.323
14,AATATGGT,0.215
15,TATTCAAA,0.0337
16,ACCGGTGC,-0.301
17,AGTCGTAC,0.0618
18,TACGGTCA,0.238
19,CCTCGGGC,-0.201
20,ATAATCTA,0.352
21,CCTAGCAG,-0.23
22,CCACACTA,0.203
23,CACCAATA,0.192
24,TAACATAA,0.15
25,CCAGCAAA,-0.241

row,Sequence,binding signal [E-score]
1,CCTTATCA,0.137
2,ACTATTGG,0.208
3,GCGTACGA,0.0471
4,CGGGCGCC,-0.435
5,CCTGTTCG,-0.118
6,CGCGGCTC,-0.293
7,GGCAAGCC,-0.313
8,AAGAGATG,-0.0176
9,TATGAACA,0.0378
10,AAAGTGTC,-0.00949
11,GCAGGAAC,-0.0908
12,ATTTCACC,-0.0341
13,ACGTTACT,0.0871
14,CTATACTA,0.288
15,GTACAACA,0.0355
16,CAGCATTA,0.152
17,ACAACACC,-0.0309
18,AGCTTAAA,0.0809
19,GACGCAGA,-0.102
20,GGTTACAA,0.12
21,GGTCGCTA,-0.0341
22,AGTCATCC,-0.081
23,CAGTGTGG,-0.177
24,GACTAGAC,-0.353
25,CAGTGGCC,-0.139

row,Sequence,binding signal [E-score]
1,GATGCTTA,-0.014
2,CTATGTTA,0.285
3,CCCTGTCG,-0.116
4,GACCGCAA,0.0358
5,CACTGTTA,0.0957
6,ACAAGAGC,-0.151
7,CCATGCCA,-0.243
8,CATACCAA,0.214
9,CCTAATTA,0.228
10,CCCCCCCA,-0.406
11,CCGTCAAC,-0.163
12,CTGGCCCC,-0.304
13,CAAAGTAA,0.19
14,ACCGGCCT,-0.135
15,CGCCCTCC,-0.396
16,CGGATCTC,-0.0657
17,AGGCGGGA,-0.284
18,TCGTCTAA,-0.11
19,ACGGACGC,-0.266
